Test results published in the supplement of paper PMC4967469.
Lines with a small IC50 respond at low doses; a fit beyond the top or the lowest dose is shown as a bound at that dose. The AUC spans the tested range (256-fold, ending at the top dose) of the same fit; values near 1 show little effect. Any top dose called inferred is not printed in the source and was worked back from the curve model. For some assays here: An entry number marks a drug with two screens in the source, which often give different values.

What was measured:
Test in all cases: Viability of human cancer cell lines after 72 h of drug (GDSC screen)
SB-525334 = compound: Cc1cccc(-c2[nH]c(C(C)(C)C)nc2-c2ccc3nccnc3c2)n1 [SB-525334]; conditions: top dose 20 µM; top dose inferred
Experimental: (§1)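 Human cancer cell lines in 384-well plates, medium with 10% serum, drug for 72 h over a 256-fold dose range (nine 2-fold or five 4-fold steps up to the top dose). Adherent lines were fixed and stained with the nucleic acid dye Syto60, suspension lines read with resazurin; signal relative to control wells, capped at 0 and 100%. One two-parameter sigmoid per drug and line, fitted in a mixed model over all curves with the slope shared within a line.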

Wee1 inhibitor 681640 = compound: O=C1NC(=O)c2c1c(-c1ccccc1Cl)cc1[nH]c3ccc(O)cc3c21 [Wee1 inhibitor 681640]; conditions: top dose 2 µM; top dose inferred
Experimental: as §1

BMS-536924 = compound: Cc1cc(N2CCOCC2)cc2[nH]c(-c3c(NC[C@@H](O)c4cccc(Cl)c4)cc[nH]c3=O)nc12 [BMS-536924]; conditions: top dose 4 µM; screen: GDSC drug entry 1091; top dose inferred
Experimental: as §1

Olaparib = compound: O=C(c1cc(Cc2n[nH]c(=O)c3ccccc23)ccc1F)N1CCN(C(=O)C2CC2)CC1 [Olaparib]
Experimental: as §1

HG-5-113-01 = compound: CNC(=O)c1ccc(Nc2cc(Nc3ccccc3S(=O)(=O)C(C)C)c3cc[nH]c3n2)nc1 [HG-5-113-01]; conditions: top dose 10 µM; top dose inferred
Experimental: as §1

Shikonin = compound: CC(C)=CC[C@@H](O)C1=CC(=O)c2c(O)ccc(O)c2C1=O [Shikonin]; conditions: top dose 16 µM; top dose inferred
Experimental: as §1

VX-702 = compound: NC(=O)c1ccc(N(C(N)=O)c2c(F)cccc2F)nc1-c1ccc(F)cc1F [VX-702]; conditions: top dose 2 µM; top dose inferred
Experimental: as §1

BIRB 0796 = compound: Cc1ccc(-n2nc(C(C)(C)C)cc2NC(=O)Nc2ccc(OCCN3CCOCC3)c3ccccc23)cc1 [BIRB 0796]; conditions: top dose 10 µM; top dose inferred
Experimental: as §1

[1] = top dose 5 µM, screen: GDSC drug entry 1017, top dose inferred
[2] = top dose 10 µM, screen: GDSC drug entry 1495

| Cell Line | AUC (SB-525334) | IC50 (SB-525334) | AUC (Wee1 inhibitor 681640) | IC50 (Wee1 inhibitor 681640) | AUC (BMS-536924) | IC50 (BMS-536924) | AUC (Olaparib; [1]) | IC50 (Olaparib; [1]) | AUC (Olaparib; [2]) | IC50 (Olaparib; [2]) | AUC (HG-5-113-01) | IC50 (HG-5-113-01) | AUC (Shikonin) | IC50 (Shikonin) | AUC (VX-702) | IC50 (VX-702) | AUC (BIRB 0796) | IC50 (BIRB 0796) |
| --- | --- | --- | --- | --- | --- | --- | --- | --- | --- | --- | --- | --- | --- | --- | --- | --- | --- | --- |
| A375 (melanoma, adherent) | 0.922 | > 20 µM | 0.954 | > 2 µM | 0.728 | 0.965 µM | 0.917 | > 5 µM | 0.883 | 7.45 µM | 0.665 | 1.64 µM | 0.31 | 0.328 µM | – | – | – | – |
| A549 (lung adenocarcinoma, adherent) | – | – | 0.972 | > 2 µM | 0.788 | 2 µM | – | – | – | – | 0.688 | 2.26 µM | – | – | 0.982 | > 2 µM | – | – |
| A673 (rhabdomyosarcoma, adherent) | 0.976 | > 20 µM | 0.986 | > 2 µM | 0.789 | 1.57 µM | – | – | 0.786 | 3.85 µM | 0.646 | 1.51 µM | 0.455 | 0.764 µM | – | – | 0.986 | > 10 µM |
| CAL-78 (chondrosarcoma, adherent) | 0.975 | > 20 µM | 0.986 | > 2 µM | 0.968 | > 4 µM | 0.986 | > 5 µM | 0.953 | > 10 µM | 0.879 | > 10 µM | 0.676 | 3.34 µM | 0.986 | > 2 µM | – | – |
| H2591 (mesothelioma, adherent) | 0.94 | > 20 µM | 0.965 | > 2 µM | 0.957 | > 4 µM | – | – | 0.98 | > 10 µM | 0.836 | 9.71 µM | 0.55 | 1.43 µM | – | – | 0.981 | > 10 µM |
| KU-19-19 (bladder, adherent) | 0.961 | > 20 µM | 0.928 | > 2 µM | 0.915 | > 4 µM | 0.977 | > 5 µM | – | – | 0.664 | 1.79 µM | 0.707 | 3.82 µM | – | – | 0.98 | > 10 µM |
| MFE-319 (endometrium, adherent) | 0.984 | > 20 µM | 0.898 | > 2 µM | 0.983 | > 4 µM | – | – | 0.972 | > 10 µM | 0.886 | > 10 µM | 0.309 | 0.297 µM | – | – | 0.974 | > 10 µM |
| NCI-H2066 (small cell lung carcinoma, adherent) | – | – | 0.98 | > 2 µM | 0.904 | > 4 µM | – | – | 0.97 | > 10 µM | 0.938 | > 10 µM | – | – | – | – | 0.943 | > 10 µM |
| NY (osteosarcoma, adherent) | 0.986 | > 20 µM | 0.814 | 1.07 µM | 0.957 | > 4 µM | 0.984 | > 5 µM | 0.951 | > 10 µM | 0.862 | 8.39 µM | 0.546 | 1.33 µM | 0.984 | > 2 µM | – | – |
| OE21 (oesophagus, adherent) | 0.955 | > 20 µM | – | – | 0.789 | 2.55 µM | 0.957 | > 5 µM | 0.937 | > 10 µM | 0.709 | 3.08 µM | 0.565 | 1.61 µM | 0.947 | > 2 µM | 0.936 | > 10 µM |
| OV-90 (ovary, adherent) | 0.869 | > 20 µM | – | – | 0.83 | 3.55 µM | 0.975 | > 5 µM | 0.973 | > 10 µM | 0.769 | 4.85 µM | 0.486 | 0.909 µM | 0.971 | > 2 µM | 0.93 | > 10 µM |
| OVCAR-3 (ovary, adherent) | 0.986 | > 20 µM | 0.849 | 1.75 µM | 0.953 | > 4 µM | – | – | – | – | 0.722 | 2.86 µM | 0.377 | 0.442 µM | – | – | 0.982 | > 10 µM |
| OVISE (ovary, adherent) | 0.908 | > 20 µM | – | – | 0.951 | > 4 µM | 0.925 | > 5 µM | 0.933 | > 10 µM | 0.819 | 8.26 µM | 0.563 | 1.57 µM | 0.871 | > 2 µM | 0.953 | > 10 µM |
| OVTOKO (ovary, adherent) | 0.941 | > 20 µM | – | – | 0.868 | > 4 µM | 0.944 | > 5 µM | 0.957 | > 10 µM | 0.721 | 3.19 µM | 0.506 | 1.04 µM | 0.945 | > 2 µM | 0.921 | > 10 µM |
| PANC-02-03 (pancreas, adherent) | 0.976 | > 20 µM | – | – | 0.905 | > 4 µM | 0.978 | > 5 µM | 0.964 | > 10 µM | 0.806 | 6.32 µM | 0.456 | 0.739 µM | 0.976 | > 2 µM | 0.904 | > 10 µM |
| PCI-4B (head and neck, adherent) | 0.976 | > 20 µM | – | – | 0.904 | > 4 µM | 0.924 | > 5 µM | 0.893 | > 10 µM | 0.689 | 2.05 µM | 0.28 | 0.247 µM | 0.974 | > 2 µM | 0.987 | > 10 µM |
| PCI-6A (head and neck, adherent) | 0.695 | 4.34 µM | – | – | 0.965 | > 4 µM | 0.914 | > 5 µM | 0.955 | > 10 µM | 0.8 | 4.72 µM | 0.461 | 0.782 µM | 0.942 | > 2 µM | 0.967 | > 10 µM |
| PCI-30 (head and neck, adherent) | 0.974 | > 20 µM | – | – | 0.982 | > 4 µM | 0.898 | > 5 µM | 0.954 | > 10 µM | 0.852 | > 10 µM | 0.704 | 4.34 µM | 0.929 | > 2 µM | 0.979 | > 10 µM |
| PL4 (pancreas, adherent) | 0.98 | > 20 µM | – | – | 0.905 | > 4 µM | 0.985 | > 5 µM | 0.963 | > 10 µM | 0.702 | 2.36 µM | 0.417 | 0.589 µM | 0.985 | > 2 µM | 0.924 | > 10 µM |
| RERF-LC-KJ (lung adenocarcinoma, adherent) | 0.954 | > 20 µM | – | – | 0.96 | > 4 µM | 0.987 | > 5 µM | 0.986 | > 10 µM | 0.882 | > 10 µM | 0.568 | 1.55 µM | 0.985 | > 2 µM | 0.96 | > 10 µM |
| RKN (ovary, adherent) | 0.972 | > 20 µM | – | – | 0.944 | > 4 µM | 0.974 | > 5 µM | 0.915 | > 10 µM | 0.842 | 7.59 µM | 0.619 | 2.17 µM | 0.985 | > 2 µM | 0.95 | > 10 µM |
| SBC-3 (small cell lung carcinoma, adherent) | 0.831 | 11.1 µM | – | – | 0.884 | 3.64 µM | 0.934 | > 5 µM | 0.903 | > 10 µM | 0.67 | 1.76 µM | 0.509 | 1.06 µM | 0.988 | > 2 µM | 0.976 | > 10 µM |
| SF295 (glioma, adherent) | 0.844 | 16.1 µM | – | – | 0.952 | > 4 µM | 0.955 | > 5 µM | 0.91 | > 10 µM | 0.757 | 3.7 µM | 0.469 | 0.818 µM | 0.975 | > 2 µM | 0.966 | > 10 µM |
| SKN (uterus, adherent) | 0.982 | > 20 µM | – | – | 0.917 | > 4 µM | 0.914 | > 5 µM | 0.905 | > 10 µM | 0.721 | 3.06 µM | 0.457 | 0.743 µM | 0.972 | > 2 µM | 0.961 | > 10 µM |
| SW626 (ovary, adherent) | 0.933 | > 20 µM | – | – | 0.893 | > 4 µM | 0.982 | > 5 µM | 0.962 | > 10 µM | 0.758 | 4.07 µM | 0.424 | 0.596 µM | 0.981 | > 2 µM | 0.983 | > 10 µM |
| SW1271 (small cell lung carcinoma, adherent) | 0.885 | > 20 µM | – | – | 0.887 | > 4 µM | 0.984 | > 5 µM | 0.969 | > 10 µM | 0.819 | 6.82 µM | 0.399 | 0.505 µM | 0.984 | > 2 µM | 0.976 | > 10 µM |
| TOV-21G (ovary, adherent) | 0.976 | > 20 µM | – | – | 0.927 | > 4 µM | 0.784 | 2.33 µM | 0.869 | > 10 µM | 0.665 | 1.88 µM | 0.444 | 0.692 µM | 0.947 | > 2 µM | 0.983 | > 10 µM |
| TOV-112D (ovary, adherent) | 0.695 | 4.42 µM | – | – | 0.89 | > 4 µM | 0.962 | > 5 µM | 0.944 | > 10 µM | 0.724 | 2.71 µM | 0.231 | 0.164 µM | 0.969 | > 2 µM | 0.985 | > 10 µM |
| TT2609-C02 (thyroid, adherent) | 0.975 | > 20 µM | – | – | 0.978 | > 4 µM | 0.964 | > 5 µM | 0.985 | > 10 µM | 0.779 | 4.37 µM | 0.316 | 0.295 µM | 0.964 | > 2 µM | 0.955 | > 10 µM |
| TYK-nu (ovary, adherent) | 0.963 | > 20 µM | – | – | 0.982 | > 4 µM | 0.938 | > 5 µM | 0.908 | > 10 µM | 0.77 | 4.07 µM | 0.57 | 1.57 µM | 0.971 | > 2 µM | 0.979 | > 10 µM |
